Over roughly 33,000 sequences, “E-score (-0.5 to 0.5)” has its median near -0.053; the highest 2% begin near 0.37. This is one part of the list.
molecular target: Hap1 (UniProt P0CE41); assay: PBM E-score (8-mer binding enrichment) (E-score (-0.5 to 0.5)); higher = stronger / more preferred TF binding; most listed sequences are background and not binding sites; details: protein concentration: 200 nM; construct: GST-DNA-binding domain
How it was run: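 Yeast transcription factors, full-length or as DNA-binding domains, were expressed with a GST tag using PURExpress in vitro transcription/translation. At about 100-200 nM they were applied to universal all-10-mer Agilent arrays, double-stranded by primer extension on fresh or once-stripped slides. Fluorescent anti-GST detected bound protein, and masliner normalised the scans. E-scores for ungapped eight-base words, pooled with reverse complements, came from the Universal PBM Analysis Suite.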

Sequence of UniProt P0CE41 (P0CE41 whole entry, the tested form may be a part): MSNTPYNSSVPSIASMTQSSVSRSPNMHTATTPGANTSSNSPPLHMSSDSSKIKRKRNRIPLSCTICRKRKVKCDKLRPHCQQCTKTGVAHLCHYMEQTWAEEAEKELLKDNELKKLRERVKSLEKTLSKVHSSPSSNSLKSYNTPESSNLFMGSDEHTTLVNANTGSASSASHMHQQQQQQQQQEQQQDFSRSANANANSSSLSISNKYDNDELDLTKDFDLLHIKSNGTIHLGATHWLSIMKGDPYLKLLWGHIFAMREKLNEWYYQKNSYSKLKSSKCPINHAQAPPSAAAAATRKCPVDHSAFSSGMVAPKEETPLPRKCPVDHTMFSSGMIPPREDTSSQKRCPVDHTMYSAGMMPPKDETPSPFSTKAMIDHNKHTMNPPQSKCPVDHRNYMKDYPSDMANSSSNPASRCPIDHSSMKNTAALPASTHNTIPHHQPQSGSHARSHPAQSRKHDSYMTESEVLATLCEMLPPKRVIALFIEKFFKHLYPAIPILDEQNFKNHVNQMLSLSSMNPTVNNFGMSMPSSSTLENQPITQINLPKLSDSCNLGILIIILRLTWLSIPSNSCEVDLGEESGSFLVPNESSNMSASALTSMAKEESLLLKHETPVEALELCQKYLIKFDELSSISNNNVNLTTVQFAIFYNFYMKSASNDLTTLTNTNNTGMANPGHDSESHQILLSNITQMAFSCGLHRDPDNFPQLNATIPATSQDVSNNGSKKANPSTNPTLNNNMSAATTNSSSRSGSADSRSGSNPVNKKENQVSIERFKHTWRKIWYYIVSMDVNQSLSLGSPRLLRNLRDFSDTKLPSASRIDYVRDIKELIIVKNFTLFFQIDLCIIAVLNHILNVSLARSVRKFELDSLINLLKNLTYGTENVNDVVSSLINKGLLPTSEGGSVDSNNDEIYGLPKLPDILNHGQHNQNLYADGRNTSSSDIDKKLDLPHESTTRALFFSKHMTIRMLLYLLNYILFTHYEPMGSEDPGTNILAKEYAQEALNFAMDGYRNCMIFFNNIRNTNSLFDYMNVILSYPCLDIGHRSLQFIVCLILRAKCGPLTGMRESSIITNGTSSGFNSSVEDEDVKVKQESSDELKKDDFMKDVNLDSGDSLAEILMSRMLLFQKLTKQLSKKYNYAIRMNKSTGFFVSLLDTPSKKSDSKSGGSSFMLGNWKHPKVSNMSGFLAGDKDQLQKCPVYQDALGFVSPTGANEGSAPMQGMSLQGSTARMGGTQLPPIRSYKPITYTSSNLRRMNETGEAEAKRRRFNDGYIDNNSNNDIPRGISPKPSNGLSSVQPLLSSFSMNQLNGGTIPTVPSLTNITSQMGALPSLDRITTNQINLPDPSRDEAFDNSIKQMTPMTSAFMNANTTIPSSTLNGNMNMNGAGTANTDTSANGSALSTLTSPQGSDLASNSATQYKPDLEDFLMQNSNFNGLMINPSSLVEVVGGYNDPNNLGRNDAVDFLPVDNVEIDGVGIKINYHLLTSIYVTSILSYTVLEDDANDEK

Sequence | PBM E-score
AGCATCTG | -0.0944
TAACCTGA | -0.14
AGAGAGCC | -0.2
TACAACCA | -0.0392
CTTTTATA | -0.221
ACGAATCC | -0.00491
AGCTCTCC | -0.106
CCGCAGTC | 0.105
CCTTACAG | -0.107
TTGATCAA | -0.141
ACGGACGA | 0.359
CAGTAACA | 0.00081
CCAAGCCC | -0.0109
GTTGCGGA | 0.175
GTGGGATA | -0.0148
ATCAGTGG | -0.192
ACATTGGG | -0.162
ATTCTACA | -0.0706
AAATTGGG | -0.0238
AGAGGGCC | -0.16
TACTTAGA | -0.362
ACCAGGCA | -0.154
CTAACGCC | 0.306
AATATGGC | -0.0273
AGTGCACA | -0.00991

Sequence | PBM E-score
CAAAATGC | -0.108
AGCCTGTC | -0.106
AGGGTTAT | -0.22
CCATGAGA | -0.0127
GCTATGTA | -0.237
GAAACCAA | 0.12
AAGCGCGC | 0.188
ACGTGCTG | -0.155
TCCTAGAA | 0.00753
ATAGGGCC | 0.0603
TCCGGGCA | 0.324
CCGAGTTC | 0.312
CCTCGATC | -0.148
CGATACGC | 0.225
CTGTGCCC | -0.138
AGTGTTCA | 0.069
GAGGAGAC | -0.0943
ACCCGTCC | 0.105
CCTTTAGC | -0.0456
CATACCGC | 0.187
AGCTCGTG | 0.0127
GCCTCCAC | -0.206
ACCGATCC | 0.3
CTGCACGA | -0.316
AAACGTTT | 0.185

Sequence | PBM E-score
AATGGGGA | -0.0712
GTCACCAA | -0.302
TGGGGGAA | -0.216
CCACGGTA | 0.146
ACGCGCTG | -0.126
GACACAAC | -0.0229
AAACAGTA | -0.152
GCATATGA | -0.0509
AAGAGTTA | -0.135
AATGGGCG | -0.0792
CGAGCCTA | -0.0101
TGGTGTAA | -0.205
CACTCCCA | -0.168
AAACTACG | 0.118
AACTAAAA | 0.0312
AACGTATA | -0.149
CGCATGAG | -0.262
ATTACAAT | -0.108
ATTCGTCG | 0.0882
CGTTCGAA | -0.00961
AATGCAGA | -0.107
CCCCTCGC | -0.0968
GGACTACA | 0.0421
GCTGATAA | 0.129
CGGAAAAC | 0.346

Sequence | PBM E-score
CATAGATC | -0.154
GAGCGGTA | 0.0947
CTTCGTCC | 0.0401
ACAAAAGA | -0.0907
ATGGGTAC | -0.297
TAAAGCGA | 0.129
AACCATCT | -0.109
AGTTTAGG | -0.273
CACGATGC | -0.181
TCTTGTCA | -0.139
CGATAATA | 0.306
TAAATTTA | 0.133
AACGTCCG | 0.371
GATCACTA | -0.011
AGTCCGCA | 0.293
CGTCCGTC | 0.234
GTGGAGAA | -0.143
TACGCGTA | 0.21
CCTTCGCA | -0.197
ACTACGAA | -0.276
GTTCCCTA | -0.0618
GCTACCTA | -0.0732
GTGATGCA | -0.103
AAACGGCC | 0.283
CGGGTTGA | 0.0475

Sequence | PBM E-score
CCTGGAAA | -0.122
ACGCAACA | -0.0464
GATCACCA | -0.0532
CTCAGCAC | -0.18
CACCAGCA | -0.272
ACATCCGT | 0.213
ATGGCTGG | -0.197
CCGGGGTC | 0.312
ATCAAGGC | -0.142
CCCTTTAG | -0.335
CTACTAGA | -0.137
AAGACGAA | -0.232
ATCTCTCC | -0.0103
TAATGCAA | -0.241
CAAATATG | -0.0929
CTAACCAG | -0.199
GCCAACGC | -0.082
GATCAATC | 0.0308
AAACAGGA | -0.229
CCGTAGGA | -0.0521
CAGCGCTG | -0.0399
ACCGTTTC | 0.0396
CTACCGTA | -0.0214
AAGTCTGT | -0.265
GACCGCCC | 0.0879

Sequence | PBM E-score
CGGGTTGC | 0.09
AAATAAAC | -0.023
ATACGAAG | -0.0294
CCGACAGC | 0.229
CCGCAATC | 0.342
AGAGTCTC | -0.185
CCTTAACA | -0.11
AGGGGATA | -0.167
ATTTAGTG | -0.0559
ATGATATA | -0.211
CTACTCCC | -0.105
AGGTGTAT | -0.094
ATAGCACA | -0.00774
ACGGTTAC | 0.159
CGTAAACG | 0.00754
CTTGGGAC | -0.133
ATACAAAT | 0.148
TAATAGCA | -0.119
ACTGTTGG | -0.231
GCCCCCGA | 0.2
ATTTCTTA | 0.00138
AGACGAAT | -0.317
CGATGAAG | 0.0796
AAGCATCG | 0.133
ACCGATCT | 0.274

Sequence | PBM E-score
ATCTTCCG | 0.314
ATCGCCGC | 0.286
GTCCGCGA | 0.227
AAGGTGCC | 0.0359
GGCCTCCA | -0.0227
GTTGATAA | -0.146
GAGAATGA | -0.137
ACGGCTTC | 0.013
CTGCAGCC | -0.146
CGACCACG | 0.0929
AAGCTGAA | 0.0178
ATCGAGTG | 0.0192
ACTTGCCG | -0.03
GGAGCACC | 0.101
AGTATGGC | -0.0271
CTGACAAC | -0.222
ATCAGGAC | -0.166
AGGTTTCG | 0.0492
GGACGGCA | 0.162
CGGATCGC | 0.147
GTGTGACA | -0.152
AATGCGCC | 0.225
